Source: ChEMBL document CHEMBL1156829
The full ranking holds about 5,400 compounds; the median of “IFI” is about 2, and the highest 2% start at about 22. Some of the results follow.

Test: NOVARTIS: Inhibition Frequency Index (IFI) - the number of HTS assays where a compound showed > 50% inhibition/induction, expressed as a percentage of the number of assays in which the compound was tested.
Assay type: functional

| SMILES | IFI [%] |
| --- | --- |
| CCCCOc1ccc(C(=O)N(C)CCCNc2ccnc3cc(Cl)ccc23)cc1 | 2.75 |
| O=C(Nc1nc(-c2ccccc2)cs1)c1ccccc1O | 9.79 |
| CCCCCCCC(=O)N1CCN(C(=O)C(NC(=O)Nc2ccc(Cl)cc2Cl)C(C)CC)CC1 (centres undefined) | 3.74 |
| Cc1ccc(S(=O)(=O)NCCCCNc2ccnc3cc(Cl)ccc23)cc1 | 2.1 |
| CCCCN(CCCC)C(=O)Cn1ccc(=N)c2ccccc21 | 0 |
| COc1ccc2nc3cc(Cl)ccc3c(Nc3ccc(O)cc3)c2c1 | 0 |
| COc1ccc(NC2=CC(=O)CC(c3ccccc3)C2)c(OC)c1 (centres undefined) | 0 |
| COCCSc1nc2sc3c(c2c(=O)n1-c1ccc(OC)cc1)CCN(C)C3 | 4.54 |
| COc1cc(OC)nc(CSc2ccc(NC(=O)CCl)cc2)n1 | 0 |
| COc1cccc(-c2ccc(O)c(CNCc3ccccc3OC)c2)n1 | 1.75 |
| CCC(C)OC(=O)C1=C(C)NC2=C(C(=O)CC(c3ccc(OC)cc3)C2)C1c1ccc(O)cc1 (centres undefined) | 4.54 |
| CC(C)(C)NCC(O)Cn1c2ccc(Cl)cc2c2cc(Cl)ccc21 (centres undefined) | 2.4 |
| O=C(NN=Cc1ccc(O)c(O)c1)/C(=C/c1ccccc1)NC(=O)c1ccccc1 | 0 |
| O=C(O)Cn1cnc2nc3n(c2c1=O)CCC3 | 0 |
| O=C(CCC1CCCC1)NCCCCNc1ccnc2cc(Cl)ccc12 | 1.87 |
| COc1ccc(N=C2NC(=O)/C(=C\c3ccc(N(C)C)cc3)S2)cc1 | 3.49 |
| CN(C)CCN1CCN(c2cccc(-c3cccc4cccnc34)n2)CC1 | 4 |
| C=CCN1C(=O)/C(=C2/Sc3ccc(OC)cc3N2C)SC1=Nc1ccccc1-c1ccccc1 | 0 |
| CCCOC(=O)C1=C(C)NC2=C(C(=O)CC(c3ccc(Cl)cc3)C2)C1c1ccc(Cl)cc1 (centres undefined) | 2.35 |
| C=CCSc1nc(Sc2ccc(Cl)cc2)c2sc3ccccc3c2n1 | 1.33 |
| Oc1ccc(Cl)cc1CNc1nc2ccccc2[nH]1 | 0 |
| N=c1n(Cc2ccccc2)c2ccccc2n1CC(O)c1ccc(Cl)cc1 (centres undefined) | 4 |
| Oc1ccccc1Nc1nc(NC2CCCC2)c2ccccc2n1 | 0 |
| S=C(NN=Cc1ccccn1)NC1CC2C=CC1C2 (centres undefined) | 19.7 |
| COc1ccc(-n2c(S)nnc2CNc2cccc(C(F)(F)F)c2)cc1 | 1.7 |

| SMILES | IFI [%] |
| --- | --- |
| Cc1ccccc1Cn1c(N2CCC(C(=O)NCc3ccccn3)CC2)nc2ccccc21 | 0 |
| CC(C)(c1ccc(Oc2ccc(NC(=O)c3ccccc3)cc2)cc1)c1cccc(Oc2ccc(NC(=O)c3ccccc3)cc2)c1 | 0 |
| Cc1cccnc1NC(=O)CCCC(=O)O | 0 |
| Cc1cc(C(C)(C)C)cc(S(=O)(=O)NCCO)c1C | 2.98 |
| c1ccc2[nH]c(CN(Cc3nc4ccccc4[nH]3)Cc3nc4ccccc4[nH]3)nc2c1 | 13.7 |
| CN(C)[C@@H]1CCN(Cc2cccc(Cl)c2)C[C@@H]1CCC(=O)NCCCN1CCOCC1 | 1.82 |
| CCOC(=O)NN=C1C=C2C=CC3C(CC[C@@]4(C)C3CC3CCCCC34C(C)=O)[C@@]2(C)CC1 (some centres undefined) | 0 |
| COc1ccc(C2CC(=O)C3=C(C2)NC(C)=C(C(=O)OC2CCCC2)C3c2ccc(SC)cc2)cc1OC (centres undefined) | 5.88 |
| COc1nc(NC(=N)N)nc2ccc(C)cc12 | 6.06 |
| COc1ccc(C2(C(=O)NCc3ccccc3Cl)CCCC2)cc1OC | 0 |
| CC(C)CNC(=O)c1cnc(NCCCN2CCCCC2C)nc1NC1CCCC1 (centres undefined) | 1.91 |
| O=C(COC(c1ccccc1)c1c(Cl)cncc1Cl)N1CCC(c2ccccn2)C1 (centres undefined) | 0.971 |
| COc1ccc(Nc2ncnc3[nH]c(-c4cccc([N+](=O)[O-])c4)cc23)cc1 | 7.14 |
| Cc1cccc(Nc2nc3nonc3[nH]c2=NN=Cc2cccs2)c1C | 0 |
| NC(=O)C1CCN(S(=O)(=O)c2cc(Br)c(Br)s2)CC1 | 7.14 |
| CCOc1ccc(C(=O)N2CCN(Cc3ccccc3)CC2)cc1 | 0 |
| NC(=S)NN=CC(=NNC(N)=S)c1ccccc1 | 11 |
| OC(Cn1nnc2ccccc21)Cn1c2ccc(Br)cc2c2cc(Br)ccc21 (centres undefined) | 2.01 |
| COc1ccc(-n2c(SCC(=O)Nc3cc(Cl)ccc3OC)nnc2-c2ccccc2)cc1 | 4.42 |
| COc1cc(NC(=O)Cn2c3ccccc3c(=O)c3ccccc32)cc(OC)c1OC | 3.61 |
| Clc1ccc2c(c1)c1cc(Cl)ccc1n2CC1CO1 (centres undefined) | 17 |
| O=C(c1c2c(nc3ccccc13)CCC2)N1CCc2ccccc21 | 2.86 |
| CN(C=Cc1sc2ccc3ccccc3c2[n+]1C)c1ccccc1 | 9.09 |
| COC(=O)c1c(-c2c(F)cccc2Cl)noc1/C=C/Nc1ccc(OC)cc1 | 3.95 |
